# Experimental data reported in paper PMC13083723 (Patterns, 2026).
# In all, about 5,400 compounds went through this assay and about 190 (3.5%) showed an effect of 50% or more. The list shows a part of the results. Non-standard residues stand in square brackets, D forms with d. Residues, ends and D or L forms follow the SMILES beside them. NMeF = CN[C@@H](Cc1ccccc1)C(=O)O
# Test system: Vero-E6
# Assay: primary screen, phospholipidosis by LipidTOX staining; higher = more effect of the substance
# Conditions: 10 µM
# Method in brief: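 Drug-induced phospholipidosis detected with HCS LipidTOX Red reagent in Vero-E6 cells. Compounds tested at 10 μM, with amiodarone (10 μM) as positive control and DMSO (0.1 v/v %) as vehicle.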
row,Compound,result_ITMP
1,Cc1noc(-c2ccc(-c3ccc(CC(=O)[O-])cc3)cc2)c1NC(=O)O[C@H](C)c1ccccc1,-0.34%
2,COc1cc(C[C@H]2c3cc(OC)c(OC)cc3CCN2C)c(Oc2cc3c(cc2OC)-c2c(OC)c(OC)cc4c2[C@H](C3)N(C)CC4)cc1OC,37.3%
3,C=CC(=O)Nc1cc2c(Nc3ccc(F)c(Cl)c3)ncnc2cc1C#CC(C)(C)N1CCN(C)CC1,36.6%
4,COc1cccc2c1C(=O)c1c(O)c3c(c(O)c1C2=O)C[C@@](O)(C(C)=O)C[C@@H]3O[C@H]1C[C@H](N)[C@H](O)[C@H](C)O1,6.36%
5,CNC(=O)c1cc(Oc2ccc(NC(=O)Nc3ccc(Cl)c(C(F)(F)F)c3)cc2)ccn1,-6.63%
6,Oc1cc(O)c2c(c1)O[C@H](c1ccc(O)c(O)c1)[C@H](O)[C@H]2c1c(O)cc(O)c2c1O[C@H](c1ccc(O)c(O)c1)[C@H](O)C2,-0.6%
7,COc1cc2nc(C3CC3)nc(N3CCN(c4ccccc4OC)CC3)c2cc1OC,-0.15%
8,CNC(=O)c1ccccc1Nc1cc(Nc2ccc(N3CCOCC3)cc2OC)ncc1C(F)(F)F,10.6%
9,Cc1c(N2C(=O)[C@@H]3[C@H](O)CCN3C2=O)ccc(C#N)c1Cl,-1.38%
10,O=C1NC(O)CCN1[C@@H]1O[C@H](CO)[C@@H](O)[C@H]1O (some centres unmarked),-8.11%
11,OCc1ccccc1O[C@@H]1O[C@H](CO)[C@@H](O)[C@H](O)[C@H]1O,-0.4%
12,O=C(O)[C@H]1CN(C/C=C/P(=O)(O)O)CCN1,-1.39%
13,COc1ccc(NS(=O)(=O)c2ccc(I)cc2)cc1N1CCN(C)CC1,16.4%
14,O=C1CCCC2C3CC(CN12)[C@@H]1CCCCN1C3 (some centres unmarked),-11.1%
15,CSCC[C@H](NC(=O)[C@H](CC(C)C)NC(=O)[C@@H](Cc1c[nH]c2ccccc12)NC(=O)[C@H](Cc1ccccc1)N(C)C(=O)[C@@H](Cc1c[nH]c2ccccc12)NC(=O)[C@@H](N)CCCN=C(N)N)C(N)=O (H-R[dW][NMeF][dW]LM-NH2),-1.85%
16,C=CC1=C(C(=O)O)N2C(=O)[C@@H](NC(=O)/C(=N\O)c3csc(N)n3)[C@H]2SC1,-6.59%
17,CN1C(CCl)Nc2cc(Cl)c(S(N)(=O)=O)cc2S1(=O)=O (centres unmarked),-4.62%
18,Cc1cn([C@H]2C=C[C@@H](CO)O2)c(=O)[nH]c1=O,-4.41%
19,CC(=O)NS(=O)(=O)c1ccc(N)cc1,-2.63%
20,CCOC(=O)c1ccc(-n2cc(Cc3cnc(OCC)nc3)c(=O)nc2SCc2ccc(F)cc2)cc1,-1.15%
21,O=P([O-])(O)C(Cl)(Cl)P(=O)([O-])O,-2.27%

row,Compound,result_ITMP
1,C=C1CC[C@@H]2[C@](C)(CO)[C@H](O)CC[C@@]2(C)[C@@H]1C/C=C1/C(=O)OC[C@H]1O,7.42%
2,CC(=O)c1cc2c(o1)C(=O)c1ccccc1C2=O,-0.05%
3,C=C1C(=O)O[C@@H]2[C@H]3C(C)=CC[C@@]34O[C@@]4(C)CC[C@@H]12,2.15%
4,CCN(CC)CC(=O)Nc1c(C)cccc1C,-4.06%
5,CC(C)(O)c1coc(S(=O)(=O)NC(=O)Nc2c3c(cc4c2CCC4)CCC3)c1,-0.5%
6,CO[C@H]1/C=C/O[C@@]2(C)Oc3c(C)c(O)c4c(O)c(cc([O-])c4c3C2=O)NC(=O)/C(C)=C\C=C\C(C)[C@H](O)[C@@H](C)[C@@H](O)[C@@H](C)[C@H](OC(C)=O)[C@@H]1C (some centres unmarked),-1.11%
7,O=C(N[C@H]1CN2CCC1CC2)c1cnc2ccsc2c1O,-2.55%
8,c1ccc2c(CC3=NCCN3)cccc2c1,0.03%
9,CC(=O)OCC(=O)[C@@]12OC(C)(C)O[C@@H]1C[C@H]1[C@@H]3C[C@H](F)C4=CC(=O)C=C[C@]4(C)[C@@]3(F)[C@@H](O)C[C@@]12C,-0.63%
10,Nc1ncnc2c1ncn2[C@H]1O[C@@H](C(=O)N2CCN(CC(=O)Nc3cccc4c3CNC4=O)CC2)[C@H](O)[C@@H]1O,-2%
11,CC1(C)C(/C=C/C=C/C=C/C=C2/N(CCCCS(=O)(=O)[O-])c3ccc4ccccc4c3C2(C)C)=[N+](CCCCS(=O)(=O)[O-])c2ccc3ccccc3c21,-0.75%
12,CC(C)C(=O)SCCCCC[C@H](NC(=O)OC(C)(C)C)C(=O)NC12CC3CC(CC(C3)C1)C2,6.93%
13,CCOc1ccc(-n2c([C@@H](C)N(Cc3cccnc3)C(=O)Cc3ccc(OC(F)(F)F)cc3)nc3ncccc3c2=O)cc1,0.18%
14,NC(=O)NCCC[C@H](N)C(=O)O,-2.47%
15,O=c1oc2c(O)c(O)cc3c(=O)oc4c(O)c(O)cc1c4c23,4.42%
16,COc1ccc(/C=C/C(=O)/C=C(O)/C=C/c2ccc(OC)c(OC)c2)cc1OC,-0.99%
17,CN(c1ccccc1CNc1nc(Nc2ccc3c(c2)CC(=O)N3)ncc1C(F)(F)F)S(C)(=O)=O,15.3%
18,CCN(CC)C(=O)N[C@H]1C=C2c3cccc4[nH]cc(c34)C[C@H]2N(C)C1,26.1%
19,O=C1NS(=O)(=O)c2ccccc21,-3.49%
20,NS(=O)(=O)c1cc2c(cc1Cl)NC(C1CC3C=CC1C3)NS2(=O)=O (centres unmarked),-2.34%
